Results are given in words; binding and its absence hold for the method and conditions named. Some results given as binding are weak or reduced against the parent protein; the word gives no strength.

Holding throughout (assay): two-hybrid; GAL4 activation domain (pGAD-C1) and GAL4 DNA binding domain (pGBDU-C3) fusions in S. cerevisiae PJ69-4A; spotted on SD medium, scored for growth in the absence of adenine, 30 °C
The target of assay [1] is T1, SpbK (full length) (B. subtilis (ICEBs1)) (UniProt P96648).
T1 sequence: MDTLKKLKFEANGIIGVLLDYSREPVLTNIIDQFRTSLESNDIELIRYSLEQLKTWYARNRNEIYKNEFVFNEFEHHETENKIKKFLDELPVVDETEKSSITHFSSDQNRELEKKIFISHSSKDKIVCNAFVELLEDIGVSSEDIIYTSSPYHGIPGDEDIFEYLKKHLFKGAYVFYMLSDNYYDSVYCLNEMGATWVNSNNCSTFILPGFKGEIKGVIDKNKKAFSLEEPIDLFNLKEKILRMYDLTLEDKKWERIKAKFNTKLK

Assay [2] deals with T2, SpbK amino acids 97-266 (TIR domain) (B. subtilis (ICEBs1)) (UniProt P96648).
T2 sequence: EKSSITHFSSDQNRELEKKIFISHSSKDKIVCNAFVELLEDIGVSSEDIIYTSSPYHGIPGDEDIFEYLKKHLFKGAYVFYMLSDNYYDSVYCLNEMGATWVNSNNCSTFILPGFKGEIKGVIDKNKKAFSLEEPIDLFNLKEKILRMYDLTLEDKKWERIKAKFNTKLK

Assay [3] deals with SpbK amino acids 1-104 (N-terminus) (B. subtilis (ICEBs1)) (UniProt P96648).

B1: SpbK amino acids 1-104 (N-terminus) (domain or fragment, UniProt P96648 1-104)
chain: MDTLKKLKFEANGIIGVLLDYSREPVLTNIIDQFRTSLESNDIELIRYSLEQLKTWYARNRNEIYKNEFVFNEFEHHETENKIKKFLDELPVVDETEKSSITHF
In the case of B1, the binding result in assay [1], in assay [2] and in assay [3] was “no binding” each time.

B2: SpbK amino acids 97-266 (TIR domain) (domain or fragment, UniProt P96648 97-266)
chain: EKSSITHFSSDQNRELEKKIFISHSSKDKIVCNAFVELLEDIGVSSEDIIYTSSPYHGIPGDEDIFEYLKKHLFKGAYVFYMLSDNYYDSVYCLNEMGATWVNSNNCSTFILPGFKGEIKGVIDKNKKAFSLEEPIDLFNLKEKILRMYDLTLEDKKWERIKAKFNTKLK
On to B2, for which the binding result in assay [1] and in assay [2] was “binds” throughout.

B3: SpbK (full length) (protein, UniProt P96648 1-266)
chain: MDTLKKLKFEANGIIGVLLDYSREPVLTNIIDQFRTSLESNDIELIRYSLEQLKTWYARNRNEIYKNEFVFNEFEHHETENKIKKFLDELPVVDETEKSSITHFSSDQNRELEKKIFISHSSKDKIVCNAFVELLEDIGVSSEDIIYTSSPYHGIPGDEDIFEYLKKHLFKGAYVFYMLSDNYYDSVYCLNEMGATWVNSNNCSTFILPGFKGEIKGVIDKNKKAFSLEEPIDLFNLKEKILRMYDLTLEDKKWERIKAKFNTKLK
Regarding B3, in assay [1], the binding entry is reported as “binds”.

For the origin of these results see paper PMC8880864.
